The other results are listed elsewhere or left out.
Columns and labels:
HSkMC = human skeletal muscle cells; assay: cytotoxicity call (relative viability < 0.9); settings: 10 µM
HepG2 = assay: cytotoxicity call (relative viability < 0.9); settings: 10 µM
S. aureus RN4220 = assay: growth inhibition call (relative growth <= 0.2); settings: 50 µM

Structure (SMILES)	cytotoxicity call (HSkMC)	cytotoxicity call (HepG2)	growth inhibition call (S. aureus RN4220)
Cc1ccc(S(=O)(=O)N(C)C[C@H]2OCCCC[C@@H](C)Oc3ccc(NC(=O)C4CCCCC4)cc3C(=O)N([C@@H](C)CO)C[C@@H]2C)cc1	inactive	inactive	inactive
COc1ccccc1C#Cc1cnc2c(c1)C(=O)N([C@H](C)CO)C[C@H](C)[C@@H](CN(C)C(=O)c1ccc3c(c1)OCO3)O2	inactive	inactive	inactive
C[C@H](CO)N1C[C@H](C)[C@H](CN(C)C(=O)C2CC2)Oc2cc(-c3ccc(C(=O)N(C)C)cc3)ccc2S1(=O)=O	inactive	inactive	inactive
C[C@@H]1CN([C@H](C)CO)C(=O)c2cccc(NS(=O)(=O)c3cccs3)c2O[C@H]1CN(C)Cc1ccc(Cl)c(Cl)c1	inactive	inactive	inactive
C[C@@H]1CN([C@@H](C)CO)C(=O)Cc2cc(NS(=O)(=O)c3ccc(Cl)cc3)ccc2O[C@H]1CN(C)Cc1ccc(-c2ccccc2)cc1	active	active	inactive
CC(C)(C)c1ccc(C(O)CCCN2CCC(C(O)(c3ccccc3)c3ccccc3)CC2)cc1 (centres undefined)	active	active	inactive
C[C@H](O)C#Cc1ccc2c(c1)O[C@@H](CN(C)C(=O)c1ccccc1)[C@@H](C)CN([C@@H](C)CO)S2(=O)=O	inactive	inactive	inactive
C[C@@H]1CN([C@@H](C)CO)C(=O)Cc2cc(NC(=O)Nc3ccc(C(F)(F)F)cc3)ccc2O[C@@H]1CN(C)Cc1ccc2c(c1)OCO2	active	active	inactive
C[C@@H]1CCCCO[C@H](CN(C)CC2CCCCC2)[C@H](C)CN([C@@H](C)CO)C(=O)c2cc(NS(=O)(=O)c3ccccc3)ccc2O1	inactive	inactive	inactive
C[C@H]1CN([C@@H](C)CO)C(=O)c2cccc(NC(=O)C3CC3)c2O[C@@H]1CN(C)S(=O)(=O)c1ccccc1	inactive	inactive	inactive
CCOC(=O)[C@H](Cc1ccccc1)NC(=O)Cn1cc(C(=O)NO)nn1	inactive	inactive	inactive
Cc1cc(C)c2c(c1)[C@@H](N(Cc1cc(C(F)(F)F)cc(C(F)(F)F)c1)c1nnn(C)n1)CCCN2C[C@H]1CC[C@H](C(=O)O)CC1	active	active	inactive
CC1(C)C[C@H](n2[nH]c(=O)cc2N)CCO1	inactive	inactive	inactive
COc1cccc(S(=O)(=O)N(C)C[C@@H]2Oc3ncc(C#CCC(C)C)cc3C(=O)N([C@@H](C)CO)C[C@@H]2C)c1	inactive	inactive	inactive
CC(C)=Cc1ccc(C#N)c(=S)[nH]1	inactive	inactive	inactive
COc1ccc(NC(=O)N(C)C[C@H]2OCCCC[C@@H](C)Oc3ccc(NS(=O)(=O)c4ccc(OC)cc4)cc3C(=O)N([C@H](C)CO)C[C@@H]2C)cc1	inactive	inactive	inactive
CN(C)CCOc1c(Br)cc(/C=C/C(=O)NCCCOc2c(Br)cc(CCN(C)C)cc2Br)cc1Br	inactive	active	inactive
C[C@@H]1CN([C@H](C)CO)C(=O)c2cc(NC(=O)Nc3ccc(C(F)(F)F)cc3)ccc2O[C@@H](C)CCCCO[C@@H]1CN(C)C(=O)Cc1ccccc1	active	inactive	inactive
CC(C)NC(=O)N(C)C[C@@H]1OCCCC[C@@H](C)Oc2ccc(NC(=O)Nc3ccc(C(F)(F)F)cc3)cc2C(=O)N([C@@H](C)CO)C[C@@H]1C	inactive	inactive	inactive
C[C@@H]1CN([C@H](C)CO)C(=O)c2cccc(NS(=O)(=O)c3cn(C)cn3)c2O[C@@H]1CN(C)CC1CC1	inactive	inactive	inactive
C[C@H]1CCCCO[C@@H](CN(C)CC2CCCCC2)[C@@H](C)CN([C@@H](C)CO)C(=O)c2cc(NC(=O)Cc3ccccc3)ccc2O1	inactive	active	inactive
C[C@H]1CN([C@@H](C)CO)C(=O)Cc2cc(NC(=O)Nc3ccc(F)cc3)ccc2O[C@@H]1CN(C)Cc1ccc(-c2ccccc2)cc1	inactive	active	inactive
CC(C)c1cc2c(cc1S(=O)(=O)O)[C@@]1(C)CCC[C@@](C)(C(=O)O)[C@@H]1CC2	inactive	inactive	inactive
O=C(O)C1CCN(c2ncccn2)CC1	inactive	inactive	inactive
COc1ccc(NC(=O)N(C)C[C@@H]2Oc3ccc(NC(=O)Cn4cnnn4)cc3CC(=O)N([C@H](C)CO)C[C@@H]2C)cc1	inactive	inactive	inactive
C[C@@H]1CN([C@@H](C)CO)C(=O)c2cc(NC(=O)Nc3ccccc3)ccc2O[C@@H](C)CCCCO[C@H]1CN(C)C(=O)Cc1ccccc1	inactive	inactive	inactive
C[C@@H]1CCCCO[C@@H](CN(C)C(=O)Nc2cccc3ccccc23)[C@@H](C)CN([C@@H](C)CO)C(=O)c2cc(NC(=O)Cc3ccccc3)ccc2O1	inactive	inactive	inactive
Cc1ccc(S(=O)(=O)Nc2ccc3c(c2)C(=O)N([C@H](C)CO)C[C@H](C)[C@@H](CN(C)C(=O)c2ccccc2)OCCCC[C@H](C)O3)cc1	inactive	inactive	inactive

Reference: the antibiotic and cytotoxicity screens of Wong et al. (2023)
